Where “and” joins values, the source holds several entries; their conditions need not be identical. Identical values can stand only once. Among all 270,000 compounds or so, about 5,800 (2.1%) were called active. This list was built around the results that the source calls inconclusive (neither active nor inactive); the mix of calls is not that of the screen. The call rests on the fitted dose curve; in most records, active means well fitted inhibition curve with a large enough effect; inconclusive means small, poorly fitted or top-dose-only effect; inactive means flat fitted curve, though single readings scatter. A potency beside an inconclusive call is a rough fit, not a confirmed value.
What follows are molecules tested against Microtubule-associated protein tau (Homo sapiens) (UniProt P10636) (assay: qHTS for Inhibitors of Tau Fibril Formation, Thioflavin T Binding). Conditions: recombinant tau K18 P301L (four-repeat tau fragment), heparin-induced fibrillization, ThT fluorescence; series mostly up to 57.4 µM.
Procedure, shortened: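 Recombinant human tau K18 fragment […] carrying P301L, 15 uM unlabeled plus 0.24 uM Alexa 594-labeled, was fibrillized with 20 uM heparin in 100 mM sodium acetate pH 7 for 6 hr at 37 C; 30 uM ThT fluorescence read after 1 hr.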
Further: nearly all actives have a fitted effect of over 55% in size.
Potency means the concentration at half of the fitted maximal effect; tags describe the fitted curve by direction and shape.

UniProt P10636, sequence (P10636 whole entry, looked up, the tested form may be a part): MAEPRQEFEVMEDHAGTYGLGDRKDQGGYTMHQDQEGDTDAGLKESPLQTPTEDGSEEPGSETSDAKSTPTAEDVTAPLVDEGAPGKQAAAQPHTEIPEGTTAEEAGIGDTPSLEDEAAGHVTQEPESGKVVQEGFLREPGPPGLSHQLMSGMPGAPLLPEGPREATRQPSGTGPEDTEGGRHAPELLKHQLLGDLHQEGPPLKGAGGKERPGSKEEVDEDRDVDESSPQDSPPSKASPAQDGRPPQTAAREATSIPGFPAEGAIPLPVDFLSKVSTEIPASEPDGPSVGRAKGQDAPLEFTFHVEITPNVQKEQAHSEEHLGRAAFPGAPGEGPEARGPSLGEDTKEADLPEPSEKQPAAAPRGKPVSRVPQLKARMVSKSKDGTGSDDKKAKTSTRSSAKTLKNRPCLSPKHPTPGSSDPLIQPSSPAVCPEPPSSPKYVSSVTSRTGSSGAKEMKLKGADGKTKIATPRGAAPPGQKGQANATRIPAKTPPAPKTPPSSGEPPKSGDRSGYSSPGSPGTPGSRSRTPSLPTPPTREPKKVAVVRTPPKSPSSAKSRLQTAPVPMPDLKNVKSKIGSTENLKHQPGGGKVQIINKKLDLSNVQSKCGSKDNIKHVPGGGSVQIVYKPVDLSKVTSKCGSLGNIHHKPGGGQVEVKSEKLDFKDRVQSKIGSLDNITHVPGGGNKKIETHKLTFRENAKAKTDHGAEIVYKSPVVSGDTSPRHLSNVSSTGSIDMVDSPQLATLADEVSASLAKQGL

SMILES | Potency
COc1ccc(-n2nnnc2SCC(=O)c2ccc(O)c(O)c2)cc1 | inactive
O=C(CN1C(=O)CCc2cc(S(=O)(=O)N3CCOCC3)ccc21)NCc1ccc(F)cc1 | inactive
CCc1cccc(NC(=O)Nc2csc3c2CCCC3)c1 | inconclusive: 0.501 µM [inhibitor, full curve]
COc1cccc(C(=O)c2sc3nc(-c4ccccc4)cc(C(F)(F)F)c3c2N)c1 | inconclusive: 11.2 µM [inhibitor, partial curve]
CCOC(=O)c1c(C)oc2ncnc(Nc3ccc(OCC)cc3)c12 | inactive
COc1ccc(-c2csc(NC(=O)c3cc(=O)c4ccccc4o3)n2)cc1OC | inconclusive: 0.891 µM [inhibitor, full curve]
O=C1C2C(C(=O)N1/N=C/c1cc(Br)cc([N+](=O)[O-])c1O)C1C=CC2C12CC2 (stereo not drawn) | active: 7.94 µM
CCOC(=O)CCc1c(C)nc(SCC(=O)O)c(C#N)c1C | inactive
Cc1nn(-c2ccccn2)c(C)c1Oc1ccccc1O | inactive
CCOc1ccc(-n2cc(-c3ccccc3)c3c(=O)[nH]cnc32)cc1 | inconclusive: 20 µM [inhibitor, partial curve]
CC(=O)Nc1ccc(OC(=O)c2cc3cc(Br)cc(Br)c3oc2=O)cc1 | inconclusive: 11.2 µM [inhibitor, partial curve]
Nc1ccc(N=Nc2ccccc2)c2ccccc12 | active: 7.08 µM
O=Nc1ccc(O)c2ncccc12 | inconclusive: 25.1 µM [inhibitor, partial curve]
Nc1c2c(nc3ccc(Br)cc13)N(c1ccccc1)CC2 | inconclusive: 14.1 µM [inhibitor, partial curve]
CC1CCCCN1C(=O)/C(=C\c1ccccc1)c1ccccc1 (stereo not drawn) | inactive
CCn1c(CSc2n[nH]c(N)n2)nc2cc(C(=O)O)ccc21 | inactive
COc1ccc(NC(=O)c2ccc(-c3nc(COc4ccccc4)c(C)o3)cc2)cc1 | inconclusive: 0.178 µM [inhibitor, full curve, poor fit]
COc1ccc(S(=O)(=O)N2CCC(C(=O)Nc3ccc(Oc4ccccc4)cc3)CC2)cc1OC | inactive
O=C(NC(=S)Nc1ccccc1)c1cncc(C#Cc2ccccc2)c1 | inconclusive: 0.0251 µM [inhibitor, full curve, poor fit]
COc1cccc(-c2nc(N3CCN(Cc4ccccc4)CC3)c3ccccc3n2)c1O | inconclusive: 20 µM [inhibitor, partial curve]
O=C(c1cccnc1)C1Cc2ccccc2C1=O (stereo not drawn) | inconclusive: 10 µM [inhibitor, partial curve]
COc1ccc2sc(NC(=O)CC(C)C)nc2c1 | inactive
COC(=O)c1ccc(NC(=O)c2cc3cc(C)ccc3n2C)cc1 | inconclusive: 2 µM [inhibitor, full curve]
CCOc1ccc(CNc2cccc(SC)c2)cc1 | active: 15.8 µM
Cc1ccc(/C=C/C(=O)N2CCc3ccccc32)o1 | inconclusive: 12.6 µM [inhibitor, partial curve]

SMILES | Potency
COc1cccc(C(=O)CSc2nnc(CNS(C)(=O)=O)n2-c2ccc(C)cc2)c1 | inactive
Cc1cc(CNCc2cn(C)nc2-c2ccc(Oc3ccccc3)cc2)on1 | inconclusive: 44.7 µM [inhibitor, single point]
O=C(CCC(=O)OCC(=O)c1ccc(Cl)cc1)NC1CCCCC1 | inconclusive: 22.4 µM [inhibitor, single point]
CC(=O)Nc1ccc(N2C(C(C)=O)=NN(c3ccccc3)C2c2cccs2)cc1 (stereo not drawn) | inconclusive: 28.2 µM [inhibitor, partial curve]
COc1ccc(C)cc1N=Nc1ccc(O)c2ncccc12 | inconclusive: 1.26 µM [inhibitor, full curve]
Cc1[nH]n(-c2cccc(Cl)c2)c(=O)c1/C=N/n1c(C)nc2ccccc2c1=O | inconclusive: 39.8 µM [inhibitor, single point]
Cc1ccccc1OCC(=O)Nc1ccc(OCc2cc(=O)n3ccccc3n2)cc1 | inconclusive: 0.355 µM [inhibitor, full curve, poor fit]
O=C(O)c1ccc(N2C(=O)/C(=C/C=C/c3ccccc3)SC2=S)cc1 | inconclusive: 11.2 µM [inhibitor, partial curve]
Cc1nn(-c2ccccc2)c2c1N(CCCC(=O)NCc1ccc(OC(C)C)cc1)C(=O)CS2 | inconclusive: 22.4 µM [inhibitor, single point]
Cc1ccc2c(CC(=O)Nc3ccc(S(=O)(=O)N4CCC(C)CC4)cc3)coc2c1 | inactive
COc1cccc(C=Nc2cccnc2)c1O | inconclusive: 31.6 µM [inhibitor, partial curve]
COc1ccccc1-c1ccc(/C=N/O)o1 | inconclusive: 15.8 µM [inhibitor, partial curve]
Cc1cccc(NC(c2cccc(Cl)c2)c2ccc3cccnc3c2O)n1 (stereo not drawn) | inconclusive: 5.01 µM [inhibitor, full curve]
COc1ccc(-c2cc([C@H]3[C@H]4C=CC[C@@H](C)[C@@H]4C(=O)N3Cc3ccccc3)ccc2F)cc1OC | inconclusive: 14.1 µM [inhibitor, partial curve]
CCCn1c2ccccc2c2cnn(CC(=O)Nc3ccccc3OC)c(=O)c21 | inactive
CCN(CC)c1ccc(C2CC(=O)Nc3cc(OC)c(OC)cc32)cc1 (stereo not drawn) | inactive
O=[N+]([O-])c1ccccc1N/N=C\c1ccccc1Cl | inconclusive: 2.24 µM [inhibitor, full curve]
C/C=C/c1ccc(OCCOCCOc2cccc3cccnc23)c(OC)c1 | inconclusive: 31.6 µM [inhibitor, single point]
Cc1nc2ccccc2c2oc(C(=O)N3CCc4ccccc4C3)cc12 | inconclusive: 17.8 µM [inhibitor, partial curve]
Cc1[nH]n(C(N)=S)c(=O)c1N=Nc1ccc2ccccc2c1 | active: 2.82 µM
Cc1ccc(Cn2cc(S(=O)(=O)c3ccccc3)c(=O)c3cc(F)c(N4CCOCC4)cc32)cc1 | inactive
CN(C)c1ccc(/C=C/C(=O)c2cccnc2)cc1 | active: 5.01 µM
CCCCN(CCCNC(=O)c1cc(Nc2ccc(OC)cc2OC)nc2ccccc12)Cc1ccccc1 | inconclusive: 10 µM [inhibitor, partial curve]
COc1ccc(-c2cn3nc(N4CCCC(C(=O)Nc5ccccc5F)C4)sc3n2)cc1 (stereo not drawn) | inconclusive: 14.1 µM [inhibitor, partial curve]
NC(=O)NNC1=Nc2cccc3cccc1c23 | inconclusive: 25.1 µM [inhibitor, single point]

SMILES | Potency
CCOc1ccccc1N(C)C(=O)c1sc2nc3n(c(=O)c2c1C)CCCC3 | inconclusive: 17.8 µM [inhibitor, partial curve, poor fit]
O=C(c1ccc(Cl)s1)N1CCOCC1 | inactive
O=C(NCc1ccco1)c1cc2ccc(O)cc2oc1=O | inactive
COc1ccc(NC(=O)CSc2nc(-c3ccccc3)cc(-c3cc(OC)c(OC)c(OC)c3)c2C#N)c(OC)c1 | inactive
Cc1ccc(OCC(=O)NNc2c3ccccc3nc3ccccc23)cc1 | active: 12.6 µM
C/C(=N\Nc1cccc2cccnc12)c1ccc(N)cc1 | active: 25.1 µM
CCOC(=O)/C=C/C(=O)Nc1nccs1 | inconclusive: 22.4 µM [inhibitor, partial curve]
OCCN1CCN(CCCN2c3ccccc3Sc3ccc(Cl)cc32)CC1 | inconclusive: 12.6 µM [inhibitor, partial curve] and inconclusive: 11.2 µM [inhibitor, partial curve, poor fit] and inconclusive: 14.1 µM [inhibitor, partial curve]
O=C(CCS(=O)(=O)c1ccc(Br)cc1)N1CCN(c2ccccc2Cl)CC1 | inconclusive: 35.5 µM [inhibitor, single point]
O=C(N/N=C/c1ccc(N2CCOCC2)o1)c1cccc([N+](=O)[O-])c1 | active: 8.91 µM
Oc1cccc(Nc2nc(O)c(/C=C3\C=Nc4ccccc43)s2)c1 | active: 3.98 µM
COc1ccc(-c2nc3oc4cc(OC)ccc4c(=O)c3c(=O)n2Cc2ccco2)cc1 | inconclusive: 31.6 µM [inhibitor, partial curve, poor fit]
CC(=O)N1CCc2c(sc(NC(=O)c3ccc([N+](=O)[O-])o3)c2C#N)C1 | inconclusive: 17.8 µM [inhibitor, partial curve]
Cc1ccccc1C(=O)Nc1cccc(-c2nc3cccnc3s2)c1 | inconclusive: 10 µM [inhibitor, partial curve]
COc1ccc(NC2C=CS(=O)(=O)C2)cc1 (stereo not drawn) | inactive
Cc1ccsc1C(=O)N/N=C/c1ccc2c(c1)OCO2 | inactive
CCCCNS(=O)(=O)c1ccc2nc(SCC(=O)N3CC(C)OC(C)C3)[nH]c2c1 (stereo not drawn) | inactive
O=C(COC(=O)c1ccncc1)Nc1cccc(Cl)c1 | inconclusive: 10 µM [inhibitor, partial curve]
S=C(Nc1ccc2c(c1)OCO2)Nc1ccc2c(c1)OCO2 | active: 25.1 µM
Cc1cc(N2CCCC2)nc(SCC(=O)c2ccccc2)n1 | inactive
C(#Cc1ccccc1)C[N+]1(CC#Cc2cccc3ccccc23)CCCC1 | inconclusive: 28.2 µM [inhibitor, single point]
C/C(=N\NC(=O)c1ccc(NS(=O)(=O)c2cccs2)cc1)c1ccc(O)cc1O | inconclusive: 3.16 µM [inhibitor, full curve]
COc1ccccc1-c1cc(C(F)(F)F)nc(N2CCOCC2)n1 | inconclusive: 28.2 µM [inhibitor, partial curve, poor fit]

Reference: PubChem BioAssay AID1460 (National Center for Advancing Translational Sciences (NCATS), 2008)
